# Measurements published in article PMC6919601, “Identification of Plasmodium dipeptidyl aminopeptidase allosteric inhibitors by high throughput screening” (PLoS ONE, 2019).
# Out of some 110,000 compounds screened, about 230 (0.21%) showed an effect of 50% or more. The list shows a part of the results.
# Target: DPAP1 (Plasmodium falciparum, UniProt Q8IIJ9)
# Assay: primary screen, percent inhibition; read by cleavage of a fluorogenic dipeptide substrate; higher = more effect of the substance
# Parameters: species or system P. falciparum D10 trophozoite lysates; single well
# 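Also: 30 min substrate incubation versus DMSO and 10 µM JCP410 controls.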
# Sequence of DPAP1 (Q8IIJ9 whole entry, looked up): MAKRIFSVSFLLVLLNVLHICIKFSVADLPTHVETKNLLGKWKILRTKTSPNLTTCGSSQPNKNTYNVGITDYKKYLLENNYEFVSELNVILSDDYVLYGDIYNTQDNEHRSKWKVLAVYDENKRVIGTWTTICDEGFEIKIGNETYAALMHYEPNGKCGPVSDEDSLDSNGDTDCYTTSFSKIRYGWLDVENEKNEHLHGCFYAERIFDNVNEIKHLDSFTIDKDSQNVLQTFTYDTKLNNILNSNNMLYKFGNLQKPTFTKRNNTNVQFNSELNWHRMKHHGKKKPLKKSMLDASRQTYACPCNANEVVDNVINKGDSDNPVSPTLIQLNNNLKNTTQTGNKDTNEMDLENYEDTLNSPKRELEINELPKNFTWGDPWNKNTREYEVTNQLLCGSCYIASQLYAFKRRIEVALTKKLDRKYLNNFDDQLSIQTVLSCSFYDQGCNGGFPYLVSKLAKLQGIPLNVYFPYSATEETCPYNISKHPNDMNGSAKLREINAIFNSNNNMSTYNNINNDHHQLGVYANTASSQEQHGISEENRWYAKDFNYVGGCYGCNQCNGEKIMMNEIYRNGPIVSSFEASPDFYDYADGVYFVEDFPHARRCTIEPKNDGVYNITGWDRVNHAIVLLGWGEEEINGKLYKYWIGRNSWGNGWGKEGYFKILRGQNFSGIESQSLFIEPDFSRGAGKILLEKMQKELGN
row,SMILES,% Inhibition @ 10 uM
1,O=C(Nc1ccccc1)Nc1cccc(Cl)c1Cl,-0.969%
2,Clc1ccc(N2CCN(Cc3ccccc3Cl)CC2)cc1,-5.5%
3,Cc1cccc(C)c1NC(=O)CN1CCCCCC1,0.273%
4,COc1ccc(Br)cc1/C=c1\sc2nc(C3COc4ccccc4O3)nn2c1=O (stereo not shown),5.12%
5,CSc1cccc(NC(=O)CNS(=O)(=O)c2ccc(F)cc2)c1,5.66%
6,CC(=O)N1CCc2c(sc3c2c(=O)n(Cc2ccccc2)c(=O)n3CC(N)=O)C1,3.32%
7,CCOc1ccc(/C=C(/C#N)c2nc(-c3ccc(F)cc3)cs2)cc1,-2.28%
8,Clc1ccc(Cn2ncc3c(N4CCCCC4)ncnc32)c(Cl)c1,-2.44%
9,CCCCN(CCCn1cnc2c3ccccc3nc-2c1O)Cc1ccccc1,1.64%
10,Nc1c(N2CCCCC2)cnn(-c2ccccc2)c1=O,3.48%
11,Cc1ccc(NC(=O)CCC(=O)O)c(C(=O)c2ccccc2)c1,-3.9%
12,Cn1c(Cn2nnc(-c3ccccc3)n2)nnc1SCc1ccccc1Cl,-4.04%
13,COc1cc(/C=C2\SC(Nc3cccc(Br)c3)=NC2=O)ccc1OCC(=O)O,0.245%
14,CCOC(=O)C1CCN(C(C)CCc2ccc(O)cc2)CC1 (stereo not shown),-3.6%
15,Cc1ccc(C)c(N(CC(=O)NC2CCCCC2)S(C)(=O)=O)c1,-4.24%
16,O=C(Nc1ccc(N2CCN(Cc3ccccc3)CC2)cc1)c1ccc(Br)o1,-2.29%
17,Cc1cc(C)c(S(=O)(=O)Nc2ccc(Br)cc2)c(C)c1,1.91%
18,C=CCn1c(SCC(=O)Nc2ccsc2C(=O)OC)nnc1-c1cccnc1,-2.19%
19,Clc1cccc(CN2CCN(c3ccccn3)CC2)c1,-3.72%
20,Nc1c(C(=O)N2CCOCC2)sc2nc3c(cc12)CCCCC3,33.4%
21,C#CC(C)(CC)NS(=O)(=O)c1cc(C(C)C)ccc1OC (stereo not shown),10.4%
22,Cc1ccc(S(=O)(=O)NCc2ccc(C(=O)N3CCN(Cc4ccccc4)CC3)cc2)cc1,-7.16%
23,Cn1c(=O)c2c(nc(CN3CCCCC3)n2Cc2c(F)cccc2Cl)n(C)c1=O,1.23%
24,OC1CCN(Cc2ccc(Cl)cc2)C1 (stereo not shown),-5.31%
25,Cc1cc(C)n(-c2nc3ccccc3n3c(C)nnc23)n1,5.62%

row,SMILES,% Inhibition @ 10 uM
1,O=C(NCc1cccnc1)c1ccc(CS(=O)(=O)c2c(Cl)cccc2Cl)o1,-8.9%
2,O=C(CN(c1cccc(C(F)(F)F)c1)S(=O)(=O)c1ccccc1)Nc1ccc2c(c1)OCO2,-5.29%
3,O=S(=O)(Nc1cc(Cl)c(O)c(Cl)c1)c1ccccc1,1.24%
4,CCOC(=O)C1=C(CN2CCC(C(N)=O)CC2)NC(=O)NC1c1ccco1 (stereo not shown),-2.83%
5,Cc1ccc(-n2nc3c(=O)n(CCCC(=O)NCc4ccc(C)o4)nc(C)c3c2C)cc1,-0.846%
6,CCC1(C)OC(=O)N(CCc2ccc(OC)c(OC)c2)C1(C)O (stereo not shown),-8.71%
7,CCCC1=C(C(=O)OCC)C(c2ccc(C)cc2)NC(=O)N1 (stereo not shown),0.0538%
8,O=C(COc1ccccc1)Nc1cc(Cl)c(Cl)cc1Cl,-4.01%
9,COc1ccc(-c2cc(C(=O)N3CCCC3)c3ccccc3n2)c(OC)c1,0.389%
10,NS(=O)(=O)c1ccc(NC(=O)CSc2nc(-c3ccccc3)c(-c3ccccc3)o2)cc1,-0.884%
11,CCCC(=O)Nc1ccc(S(=O)(=O)N(C)Cc2ccccc2)cc1,-0.251%
12,Cc1cccc(NC(=O)c2noc3c2CCCC3)n1,-3.64%
13,COc1c2ccoc2nc2c(OC)cccc12,-0.969%
14,O=S(=O)(NCCc1nnc2ccc(SCc3cccc(C(F)(F)F)c3)nn12)c1ccccc1,-2.26%
15,CCc1ccccc1-n1c(SCC(=O)N(CC)CC)nc2nnc(C)c-2c1N,1.2%
16,Cc1ccc(S(=O)(=O)Nc2ccc(NC(=O)Nc3ccc(Cl)cc3)cc2)cc1,-2.46%
17,CCOC(=O)N1CCN(c2c(NCCCN(CC)CC)c(=O)c2=O)CC1,-5.05%
18,CCN(CC)CCCC(C)NC(=O)c1c(NC(=O)c2ccccc2)sc(C)c1C (stereo not shown),1.13%
19,COc1ccc(-c2cc(C(N)=O)on2)cc1,8.01%
20,COCCN1C(=O)/C(=C/c2ccccc2)S/C1=N\c1ccccc1,-4.21%
21,CC(C)(C)C(=O)Nc1ccc(-c2nc3ccccc3o2)cc1,-4.43%
22,CCOc1ccc2nc(N3CCCC(C(=O)NC(CC)Cc4ccccc4)C3)sc2c1 (stereo not shown),3.4%
23,Cc1ccc(C)c(-c2csc(NC(=O)C3C4CCC(C4)C3C(=O)O)n2)c1 (stereo not shown),8.36%
24,Cc1ccc2[nH]c3c(N4CCOCC4)ncnc3c2c1,-1.85%
25,CC1Cc2cc(C(=O)C3=C(O)C(=O)N(CCCN4CCOCC4)C3c3ccccc3)ccc2O1 (stereo not shown),-1.41%

row,SMILES,% Inhibition @ 10 uM
1,CCSC1=N/C(=C\c2ccc(OC)cc2)C(=O)N1,-0.105%
2,CCCCNc1oc(/C=C/c2ccccc2OC)nc1C#N,0.685%
3,O=C(O)CSc1nnc(-c2cccs2)n1-c1ccccc1,-7.65%
4,CCCN(CCC)S(=O)(=O)c1ccc(C(=O)Nc2nc3c(s2)CCc2ccccc2-3)cc1,7.49%
5,CC(C)(C)c1ccc(/C=C/C(=O)N(Cc2ccccc2F)C2CCS(=O)(=O)C2)cc1 (stereo not shown),5.17%
6,O=C1NN(c2ccc(Br)cc2)C(=O)/C1=C\c1ccco1,-3.35%
7,Cc1ccc(Cc2c(C)nc3c(C(=O)NCc4ccc5c(c4)OCO5)cnn3c2C)cc1,-0.406%
8,COC(=O)c1sccc1NC(=O)CSc1nnnn1-c1ccccc1F,2.99%
9,Cc1ccc(-n2nc3c(N4CCCC(C(=O)NCc5ccccn5)C4)nnc(C)c3c2C)cc1 (stereo not shown),-1.23%
10,O=C(c1ccc(S(=O)(=O)N2CCCC2)cc1)N1CCN(C(c2ccccc2)c2ccccc2)CC1,-0.891%
11,CC(C(=O)O)c1nnc(O)c2ccccc12 (stereo not shown),4.15%
12,COCCNC(=O)CN1CCN(Cc2cccc(Cl)c2)C1=O,-1.55%
13,CCCCC(NC(=O)C(NC(=O)OCc1ccccc1)C(C)CC)C(=O)C[N+](=O)[O-] (stereo not shown),0.744%
14,O=C(c1cc(-c2ccco2)on1)N1CCN(C(c2ccccc2)c2ccccc2)CC1,0.0221%
15,Cc1nc(NC(=O)c2cc(Cl)ccc2Cl)ccc1Br,0.755%
16,Cc1cc(NS(=O)(=O)c2ccc(NC(=O)COc3ccc(C(C)C)c(C)c3)cc2)no1,6.73%
17,COC(=O)c1cccc(NC(=O)c2ccccc2OC)c1,-6.44%
18,CCOc1ccc2nc(N3CCC(C(=O)N4CCN(C)CC4)CC3)sc2c1,-0.0745%
19,CCOC(=O)c1cc(C)n(CC2CCC(C(=O)NCCC3=CCCCC3)CC2)c1C (stereo not shown),-0.943%
20,C=CCSc1nc(O)c2c(n1)NC(=O)CC2c1ccc(O)c(OCC)c1 (stereo not shown),-1.11%
21,CCc1ccc(C(=O)CSc2nc3ccccc3c(=O)n2C)cc1,5.39%
22,CSc1ccc(CN2CCC(C(N)=O)CC2)cc1,-2.95%
23,Nc1nnc(Sc2c(O)nc3ccc(Cl)cc3c2-c2ccccc2)s1,9.14%
24,CCCSc1ncc(Cl)c(C(=O)Nc2cccnc2)n1,5.29%
25,COCCNC(=O)C1CCN(S(=O)(=O)c2c(C)noc2/C=C/c2cccs2)CC1,-3.32%

row,SMILES,% Inhibition @ 10 uM
1,CN(C)c1ccc(C(NS(=O)(=O)c2ccccc2)(C(F)(F)F)C(F)(F)F)cc1,7.25%
2,Cc1ccc2c(=O)c(C(=O)c3ccc(Cl)cc3)cn(CC(=O)NCc3ccco3)c2n1,3.87%
3,NC(=O)C(c1ccccc1)c1ccccn1 (stereo not shown),1.57%
4,O=C1O[C@H]2C[C@@H]3C[C@H]2[C@H]1[C@@H]3C(=O)N(Cc1ccccc1)Cc1ccccc1,0.558%
5,CC1CCCN(C(=O)C(Sc2ccccc2)c2ccccc2)C1 (stereo not shown),-4%
6,O=C(Nc1ccc(Cl)cn1)c1ccc2nsnc2c1,-0.0108%
7,COc1cc(C(=O)Nc2nnc(S(=O)(=O)N3CCCCCC3)s2)cc(OC)c1OC,3.3%
8,Cc1cccc(CN(CC(C)O)CC(C)O)c1 (stereo not shown),1.62%
9,Cc1ccc(-n2nc(C)c3cc(C(=O)O)sc32)cc1,-3.34%
10,CN1C(=O)/C(=C\c2cc(Br)ccc2O)N=C1SCC(=O)NCc1ccco1,1.03%
11,O=C(Nc1cccc([N+](=O)[O-])c1)c1cccc(C(=O)Nc2cccc([N+](=O)[O-])c2)c1,-10.1%
12,CCOC(=O)c1sc(N2C(=O)c3oc4ccccc4c(=O)c3C2c2ccccc2F)nc1C (stereo not shown),-2.92%
13,CCC1CCC(NCCCn2ccnc2)CC1 (stereo not shown),-7.18%
14,CN1C2CCC1CC(N(CCc1ccccc1)C(=O)c1ccc(-c3ccccc3)cc1)C2 (stereo not shown),0.0035%
15,O=C(NCc1ccc(F)cc1)c1noc2c1COc1ccccc1-2,69.7%
16,Cn1c(=O)c(S(=O)(=O)C(C)(C)C)c(O)c2ccccc21,-1.98%
17,COc1ccccc1[C@@H](C)C[C@H](NC(=O)c1ccc(-c2ccccc2Cl)c(Cl)c1)C(=O)NCC#N,-4.82%
18,CNC(=O)/C(C#N)=C/c1c(Oc2ccc(C(C)(C)C)cc2)nc2c(C)cccn2c1=O,-1.43%
19,COc1ccc(-c2cc3c(=O)n(CC(=O)NCCc4ccc(Cl)cc4)ncn3n2)cc1,3.87%
20,CCOC(=O)c1c(C)oc2c1c(/C=N/C1CCS(=O)(=O)C1)c(O)c1ccccc12 (stereo not shown),0.343%
21,Cc1ccc2cc3cc(C(=O)NCCCN4CCCCCC4)oc3nc2c1,3.53%
22,COc1cc(C2Nc3ccccc3C(=O)N2c2ccccc2)c(Br)cc1OCC(=O)O (stereo not shown),-3.37%
